Assay results reported in patent US20230272055A1, “ANTI-MUTANT CALRETICULIN (CALR) ANTIBODIES AND USES THEREOF” (Incyte Corporation, priority 2021, published 2023).

B1: 61 (antibody)
heavy: EVQLVQSGAEVKKPGASVKVSCKVSGYTLTELSMQWVRQAPGKGLEWMGGFDPDAGETMYAEKFQGRLTVTEDTSTDTVYMELSSLRSEDTAVYFCATSPGYDFFDYWGQGTLVTVSSASTKGPSVFPLAPSSKSTSGGTAALGCLVKDYFPEPVTVSWNSGALTSGVHTFPAVLQSSGLYSLSSVVTVPSSSLGTQTYICNVNHKPSNTKVDKRV[omitted - human IgG1 Fc with changes]
light: QSALTQPASVSGSPGQSITISCTGTSSDVGGYNYVSWYQQHPGKAPKLMIYEVSNRPSGVSNRFSGSNSGNTATLTINRVEAGDEADYYCQVWDSSNDLLIFGGGTKLTVLGQPKAAPSVTLFPPSSEELQANKATLVCLISDFYPGAVTVAWKADSSPVKAGVETTTPSKQSNNKYAASSYLSLTPEQWKSHRSYSCQVTHEGSTVEKTVAPTECS
B2: 183 (antibody)
heavy: EVQLVQSGAEVKKPGASVKVSCKVSGYTLTELSMQWVRQAPGKGLEWMGGFDPDEGETMYAEKFQGRLTVTEDTSTDTVYMELRSLTSEDTALYFCATSPGYDFFDYWGQGTLVTVSSASTKGPSVFPLAPSSKSTSGGTAALGCLVKDYFPEPVTVSWNSGALTSGVHTFPAVLQSSGLYSLSSVVTVPSSSLGTQTYICNVNHKPSNTKVDKRV[omitted - human IgG1 Fc with changes]
light: SYVLTQPPSVSVAPGQTARITCGGSDIGDEIVHWYQQKPGQAPVLVVYDDSDRPSGIPERFSGSNSGNTATLTISRVEAGDEADYYCQVWDSSSDHLIFGGGTKLTVLGQPKAAPSVTLFPPSSEELQANKATLVCLISDFYPGAVTVAWKADSSPVKAGVETTTPSKQSNNKYAASSYLSLTPEQWKSHRSYSCQVTHEGSTVEKTVAPTECS
B3: 83 (antibody)
heavy: EVQLVQSGAEVKKPGASVKVSCKVSGYTLTELSMQWVRQAPGKGLEWMGGFDPDEGETMYAEKFQGRLTVTEDTSTDTVYMELSSLRSEDTAVYFCATSPGYDFFDYWGQGTLVTVSSASTKGPSVFPLAPSSKSTSGGTAALGCLVKDYFPEPVTVSWNSGALTSGVHTFPAVLQSSGLYSLSSVVTVPSSSLGTQTYICNVNHKPSNTKVDKRV[omitted - human IgG1 Fc with changes]
light: SYVLTQPPSVSVAPGKTARITCGGNNIGSKSVHWYQQKPGQAPVLVVYDDSDRPSGIPERFSGSNSGNTATLTISRVEAGDEADYYCQVWDSSNDLLIFGGGTKLTVLGQPKAAPSVTLFPPSSEELQANKATLVCLISDFYPGAVTVAWKADSSPVKAGVETTTPSKQSNNKYAASSYLSLTPEQWKSHRSYSCQVTHEGSTVEKTVAPTECS
B4: 143 (antibody)
heavy: EVQLVQSGAEVKKPGASVKVSCKVSGYTLTELSMQWVRQAPGKGLEWMGGFDPDDAETMYAEKFQGRLTVTEDTSTDTVYMELSSLRSEDTAVYFCATSPGYDFFDYWGQGTLVTVSSASTKGPSVFPLAPSSKSTSGGTAALGCLVKDYFPEPVTVSWNSGALTSGVHTFPAVLQSSGLYSLSSVVTVPSSSLGTQTYICNVNHKPSNTKVDKRV[omitted - human IgG1 Fc with changes]
light: SYVLTQPPSVSVAPGKTARITCGGDNIGSKSVHWYQQKPGQAPVLVVYDDSDRPSGIPERFSGSNSGNTATLTISRVEAGDEADYYCQVWDSSNDLLIFGGGTKLTVLGQPKAAPSVTLFPPSSEELQANKATLVCLISDFYPGAVTVAWKADSSPVKAGVETTTPSKQSNNKYAASSYLSLTPEQWKSHRSYSCQVTHEGSTVEKTVAPTECS
B5: 133 (antibody)
heavy: EVQLVQSGAEVKKPGASVKVSCKVSGYTLTELSMQWVRQAPGKGLEWMGGFDPDDAETMYAEKFQGRLTVTEDTSTDTVYMELSSLRSEDTAVYFCATSPGYDFFDYWGQGTLVTVSSASTKGPSVFPLAPSSKSTSGGTAALGCLVKDYFPEPVTVSWNSGALTSGVHTFPAVLQSSGLYSLSSVVTVPSSSLGTQTYICNVNHKPSNTKVDKRV[omitted - human IgG1 Fc with changes]
light: SYELTQPPSVSVAPGKTARITCGGDNIGSKSVHWYQQKPGQAPVLVVYDDSDRPSGIPERFSGSNSGNTATLTINRVEAGDEADYYCQVWDSSNDLLIFGGGTKLTVLGQPKAAPSVTLFPPSSEELQANKATLVCLISDFYPGAVTVAWKADSSPVKAGVETTTPSKQSNNKYAASSYLSLTPEQWKSHRSYSCQVTHEGSTVEKTVAPTECS
B6: 187 (antibody)
heavy: EVQLVQSGAEVKKPGASVKVSCKVSGYTLTELSMQWVRQAPGKGLEWMGGFDPDSGETMYAEKFQGRLTVTEDTSTDTVYMELSSLRSEDTAVYFCATSPGYDFFDYWGQGTLVTVSSASTKGPSVFPLAPSSKSTSGGTAALGCLVKDYFPEPVTVSWNSGALTSGVHTFPAVLQSSGLYSLSSVVTVPSSSLGTQTYICNVNHKPSNTKVDKRV[omitted - human IgG1 Fc with changes]
light: SYVLTQPPSVSVAPGQTARITCGGSDIGDEIVHWYQQKPGQAPVLVVYDDSDRPSGIPERFSGSNSGNTATLTISRVEAGDEADYYCQVWDSSSDHLIFGGGTKLTVLGQPKAAPSVTLFPPSSEELQANKATLVCLISDFYPGAVTVAWKADSSPVKAGVETTTPSKQSNNKYAASSYLSLTPEQWKSHRSYSCQVTHEGSTVEKTVAPTECS
B7: 66 (antibody)
heavy: EVQLVQSGAEVKKPGASVKVSCKVSGYTLTELSMQWVRQAPGKGLEWMGGFDPDAGETMYAEKFQGRLTVTEDTSTDTVYMELRSLTSEDTALYFCATSPGYDFFDYWGQGTLVTVSSASTKGPSVFPLAPSSKSTSGGTAALGCLVKDYFPEPVTVSWNSGALTSGVHTFPAVLQSSGLYSLSSVVTVPSSSLGTQTYICNVNHKPSNTKVDKRV[omitted - human IgG1 Fc with changes]
light: SYVLTQPPSVSVAPGKTARITCTGTSSDVGGYNYVSWYQQKPGQAPVLVVYEVSNRPSGIPERFSGSNSGNTATLTISRVEAGDEADYYCQVWDSSNDLLIFGGGTKLTVLGQPKAAPSVTLFPPSSEELQANKATLVCLISDFYPGAVTVAWKADSSPVKAGVETTTPSKQSNNKYAASSYLSLTPEQWKSHRSYSCQVTHEGSTVEKTVAPTECS
B8: 142 (antibody)
heavy: EVQLVQSGAEVKKPGASVKVSCKVSGYTLTELSMQWVRQAPGKGLEWMGGFDPDEGETMYAEKFQGRLTVTEDTSTDTVYMELSSLRSEDTAVYFCATSPGYDFFDYWGQGTLVTVSSASTKGPSVFPLAPSSKSTSGGTAALGCLVKDYFPEPVTVSWNSGALTSGVHTFPAVLQSSGLYSLSSVVTVPSSSLGTQTYICNVNHKPSNTKVDKRV[omitted - human IgG1 Fc with changes]
light: SYVLTQPPSVSVAPGKTARITCGGDNIGSKSVHWYQQKPGQAPVLVVYDDSDRPSGIPERFSGSNSGNTATLTISRVEAGDEADYYCQVWDSSNDLLIFGGGTKLTVLGQPKAAPSVTLFPPSSEELQANKATLVCLISDFYPGAVTVAWKADSSPVKAGVETTTPSKQSNNKYAASSYLSLTPEQWKSHRSYSCQVTHEGSTVEKTVAPTECS
B9: 56 (antibody)
heavy: EVQLVQSGAEVKKPGASVKVSCKVSGYTLTELSMQWVRQAPGKGLEWMGGFDPDAGETMYAEKFQGRLTVTEDTSTDTVYMELRSLTSEDTALYFCATSPGYDFFDYWGQGTLVTVSSASTKGPSVFPLAPSSKSTSGGTAALGCLVKDYFPEPVTVSWNSGALTSGVHTFPAVLQSSGLYSLSSVVTVPSSSLGTQTYICNVNHKPSNTKVDKRV[omitted - human IgG1 Fc with changes]
light: QSALTQPASVSGSPGQSITISCTGTSSDVGGYNYVSWYQQHPGKAPKLMIYEVSNRPSGVSNRFSGSNSGNTATLTINRVEAGDEADYYCQVWDSSNDLLIFGGGTKLTVLGQPKAAPSVTLFPPSSEELQANKATLVCLISDFYPGAVTVAWKADSSPVKAGVETTTPSKQSNNKYAASSYLSLTPEQWKSHRSYSCQVTHEGSTVEKTVAPTECS
B10: 78 (antibody)
heavy: EVQLVQSGAEVKKPGASVKVSCKVSGYTLTELSMQWVRQAPGKGLEWMGGFDPDEGETMYAEKFQGRLTVTEDTSTDTVYMELRSLTSEDTALYFCATSPGYDFFDYWGQGTLVTVSSASTKGPSVFPLAPSSKSTSGGTAALGCLVKDYFPEPVTVSWNSGALTSGVHTFPAVLQSSGLYSLSSVVTVPSSSLGTQTYICNVNHKPSNTKVDKRV[omitted - human IgG1 Fc with changes]
light: SYVLTQPPSVSVAPGKTARITCGGNNIGSKSVHWYQQKPGQAPVLVVYDDSDRPSGIPERFSGSNSGNTATLTISRVEAGDEADYYCQVWDSSNDLLIFGGGTKLTVLGQPKAAPSVTLFPPSSEELQANKATLVCLISDFYPGAVTVAWKADSSPVKAGVETTTPSKQSNNKYAASSYLSLTPEQWKSHRSYSCQVTHEGSTVEKTVAPTECS

Target: T1, recombinant MBP-mutCALR Type 1 fusion protein (Homo sapiens, UniProt P27797, DEL40-40)
T1 construct: His6 (N); purchased Cepter (cepterbiopartners.com), custom made
Assay: Biacore SPR binding kinetics, Experiment 2 (parental and variant antibodies)
Conditions: Biacore 8K, 25° C., 1:1 binding model
Method: The amino acid sequence of recombinant MBP-mutCALR Type 1 fusion protein used in Experiments 1 and 2 is:
Experiment 2: Recombinant MBP-mutCALR Type 1 fusion protein was custom made at Cepter (cepterbiopartners.com). Data for the interaction of antibodies with recombinant mutCALR protein were collected at 25° C. on a Biacore 8K instrument (Cytiva, Marlborough, Mass.), and all reagents were obtained from Cytiva unless otherwise specified. The experiments were conducted using Tris-buffered saline (pH 7.2), 0.005% Surfactant P20, 1 mM CaCl2) as running buffer. To prepare the capture surfaces, anti-human IgG (Fc) antibodies (Product #29234600) was amine-coupled onto a CM4 chip (Product #BR100534) under standard conditions using an Amine Coupling Kit (Product #BR100050). Anti-mutCALR antibodies were captured onto the chip surface by injecting over flow cell 2 only at a flow rate of 10 μL/min for 30 seconds. […] Recombinant MBP-mutCALR Type 1 fusion protein was prepared at nominal concentrations of 0, 0.75, 2.22, 6.67, 20, and 60 nM and injected over both flow cells 1 and 2 for 150 seconds at a flow rate of 69 L/min, followed by a 230-second dissociation phase at the same flow rate. The kinetics parameters were obtained by applying 1:1 binding model to fit the data from multiple-cycle injection experiments using Biacore Insight Evaluation software.

Point of comparison: B2, “ka” value 1.23e+06 M⁻¹ s⁻¹. Against it:
- B1 — 3.4-fold higher, 4.13e+06 M⁻¹ s⁻¹
- B3 — 4.6-fold higher, 5.62e+06 M⁻¹ s⁻¹
- B4 — 4.7-fold higher, 5.74e+06 M⁻¹ s⁻¹
- B5 — 6.9-fold higher, 8.51e+06 M⁻¹ s⁻¹
- B6 — 8.1-fold higher, 1e+07 M⁻¹ s⁻¹
- B7 — 2.9-fold higher, 3.54e+06 M⁻¹ s⁻¹
- B8 — within 1.5-fold, 1.19e+06 M⁻¹ s⁻¹
- B9 — 1.8-fold lower, 690000 M⁻¹ s⁻¹
- B10 — within 1.5-fold, 873000 M⁻¹ s⁻¹

Point of comparison: B7, “kd” value 0.00836 s⁻¹. Against it:
- B1 — 2.3-fold lower, 0.00369 s⁻¹
- B2 — 6.7-fold lower, 0.00124 s⁻¹
- B3 — within 1.5-fold, 0.00992 s⁻¹
- B4 — within 1.5-fold, 0.00753 s⁻¹
- B5 — within 1.5-fold, 0.00702 s⁻¹
- B6 — 1.9-fold higher, 0.0163 s⁻¹
- B8 — 3.1-fold lower, 0.00269 s⁻¹
- B9 — 3.9-fold lower, 0.00212 s⁻¹
- B10 — 3.5-fold lower, 0.0024 s⁻¹
